# In PubChem BioAssay AID624202 (National Center for Advancing Translational Sciences (NCATS), 2012):
# The whole screen tested about 380,000 compounds, of which about 4,000 (1.1%) were called active. Inconclusive results, whose numbers are uncertain, are shown with a selection of clear calls. Calls come from the whole dose curve; as a rule, active = well fitted activation curve with a large enough effect; inconclusive = small, poorly fitted or top-dose-only effect; inactive = no such curve, though single readings can be large or run the other way. A potency beside an inconclusive call is a rough fit, not a confirmed value.
# Test: qHTS Assay to Identify Small Molecule Activators of BRCA1 Expression; note: nearly all actives have a fitted effect of over 80% in size
# Settings: MCF7-BRCA1-FFLuc reporter, luminescence, 48 h; activation: at 46.1 µM (top of the series), scaled: vehicle 0%, 10 µM genistein 100% unless noted
# In short: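 First, MCF7-BRCA1-FFLuc cells (2000/well) attach for 2 h; next, compounds are pin-added and incubated 48 h at 37 °C; finally, luciferase reagent is added and luminescence read after 15 min.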
# Potency is the fitted concentration of half-maximal effect; tags give direction and shape of the fitted curve.
SMILES,Potency,activation
CC(Cc1cccs1)NC(=O)Nc1ccc([N+](=O)[O-])cc1 (configuration not stated),active: 5.62 µM,–
COc1ccc(CC(=O)Nc2cccc(-c3nnc(-c4ccco4)o3)c2)cc1,inactive,–
Cc1cccc(/C=C/c2onc(C)c2S(=O)(=O)N2CCC(C(=O)N3CCCCCC3)CC2)c1,inactive,–
Cc1ccc(O)c(NC(=O)c2cc(-c3cccs3)on2)c1,"inconclusive: 1.78 µM [activator, full curve, poor fit]",–
O=C(NCc1ccco1)Nc1ccc(Br)cc1Cl,active: 12.6 µM,–
Cc1nn(C)c(C)c1C(C)NC(=O)c1cc(COc2ccc(F)c(F)c2)on1 (configuration not stated),"inconclusive: 20 µM [activator, single point]",–
CCOC(=O)C1(C)NC(c2cccs2)C2C(=O)N(c3ccc(OC)cc3)C(=O)C21 (configuration not stated),inactive,–
Cc1ccc(-c2cn(-c3ccccc3)c(=S)[nH]2)cc1C,"inconclusive: 1.26 µM [activator, full curve, poor fit]",–
C=CCN(CC=C)C(=O)c1ccc(OC2CCN(S(=O)(=O)N(C)C)CC2)cc1,inactive,–
Cc1c(C(=O)N(C)C)sc2c1c(=O)n(-c1ccc(Cl)c(Cl)c1)c(=O)n2CC(=O)Nc1ccc(Br)cc1F,inactive,–
CCOc1ccc(-c2ccc(SCC(=O)Nc3nnc(CC)s3)nn2)cc1,"inconclusive: 3.16 µM [activator, partial curve, poor fit]",–
Cc1cc(C)c2nc(N3CCC(C(=O)NCc4ccccn4)CC3)sc2c1,active: 3.98 µM,–
COc1ccccc1CNC(=O)CSc1ccsc1[N+](=O)[O-],active: 12.6 µM,–
Cc1csc(N(C(=O)c2cccc(S(=O)(=O)N3CCCC3)c2)c2ccccc2)n1,inactive,–
Nn1c(SCC(=O)NC2CCCCCC2)nnc1C(F)(F)F,inactive,–
CC(C)c1cc(C(N)=O)c(NC(=O)c2cccc(COc3ccc(Cl)cc3)c2)s1,–,inconclusive: -72.7% [activator]
O=C(NC1CCC(O)CC1)c1ccc(-c2ccc(Cl)cc2)o1 (configuration not stated),"inconclusive: 7.94 µM [activator, partial curve, poor fit]",–
CC(=O)Nc1ccc(C=Cc2ccc([N+](=O)[O-])cc2)cc1,active: 1.78 µM,–
O=C(Nc1ccccc1)Nc1ccc(Br)cc1F,"inconclusive: 2.51 µM [activator, partial curve, poor fit]",–
c1ccc(C2=NN(c3ccccc3)CC2)cc1,"inconclusive: 31.6 µM [activator, single point]",–
O=C(NNC(=O)c1cccc2ccccc12)c1ccc(Cl)cc1Cl,active: 12.6 µM,–
O=C(NCC1CCCO1)c1cc2ccccc2oc1=O (configuration not stated),"inconclusive: 14.1 µM [activator, single point]",–
